Data as given in patent US20240156979A1 (PALLEON PHARMACEUTICALS, published 2024).

Molecular target: T1, Siglec-specific antibody for Siglec-9 (R&D Systems MAB1139)
T1 construct: Bought reagent, known only by its catalog number; also called anti-Siglec-9 antibody; Sig-9 specific antibody
Assay: ForteBio Octet; construct captured on AHC biosensor, antibody titrated; 1:1 fit
Method: Binding of purified Siglec ECD constructs to anti-Siglec antibodies was measured by ForteBio Octet.
Briefly, Siglec ECD constructs were captured on an AHC (Anti-human IgG-Capture) Biosensor. Siglec-specific antibodies for Siglec-6 (R&D Systems; MA2859), Siglec-9 (R&D Systems MAB1139), Siglec-10 (Thermo Fisher Scientific; MA5-28237), Siglec-11 (R&D Systems; MAB3258), and Siglec-15 (a monoclonal antibody derived from a 5G12 variant having a hVH1 heavy chain and hVL3 light chain as described in WO2018/057735) were titrated from 100 nM in a 2× series dilution. The signal was subtracted with buffer reference and aligned to the baseline. KD, Kon and Koff values were generated using a 1:1 fitting model. The binding kinetics for the following Siglec ECD constructs were determined: Sig-6-Fc-1G, Sig-6-SAX-Fc-1G, Sig-9-Fc, Sig-9-Fc-1G, Sig-9-SAX-Fc-1G, Sig-11-Fc-1G, Sig-11-SAX-Fc-1G, Sig-15-Fc-1G, and Sig-15-SAX-Fc-1G. All the ForteBio Octet assays used standard/conventional settings.

Kd: < 10 nM
B1: Sig-9-Fc-1G (Fc fusion)
chain: QTSKLLTMQSSVTVQEGLCVHVPCSFSYPSHGWIYPGPVVHGYWFREGANTDQDAPVATNNPARAVWEETRDRFHLLGDPHTKNCTLSIRDARRSDAGRYFFRMEKGSIKWNYKHHRLSVNVTALTHRPNILIPGTLESGSPQNLTCSVPWACEQGTPPMISWIGTSVSPLDPSTTRSSVLTLIPQPQDHGTSLTCQVTFPGASVTTNKTVHLNVSYPPQNLTMTVFQGDGTVSTVLGNGSSLSLPEGQSLRLVCAVDAVDSNPPARLSLSWRGLTLYPSQPSNPGVLELPWVHLRDAAEFTCRAQNPLGSQQVYLNVSLQSKATSGVTQGAS[human IgG1 Fc with changes not given here]
notes: also called Sig-9-1G-Fc; Sig-9-1G
